In the GPR68 mutational scans of Howard et al. (2025) one finds cAMP reporter score and surface expression score data, which are given here for 4 variants.

Scores with a large standard error are left out. The source holds two more conditions with little spread; they are left out. Read del as a deletion of the residues named and ins as an insertion between two positions. For some of these results: The concentration of ogerin is not given here.

Sequences and labels used below:
B1: GPR68, Q15743 (parent)
chain: MGNITADNSSMSCTIDHTIHQTLAPVVYVTVLVVGFPANCLSLYFGYLQIKARNELGVYLCNLTVADLFYICSLPFWLQYVLQHDNWSHGDLSCQVCGILLYENIYISVGFLCCISVDRYLAVAHPFRFHQFRTLKAAVGVSVVIWAKELLTSIYFLMHEEVIEDENQHRVCFEHYPIQAWQRAINYYRFLVGFLFPICLLLASYQGILRAVRRSHGTQKSRKDQIQRLVLSTVVIFLACFLPYHVLLLVRSVWEASCDFAKGVFNAYHFSLLLTSFNCVADPVLYCFVSETTHRDLARLRGACLAFLTCSRTGRAREAYPLGAPEASGKSGAQGEEPELLTKLHPAFQTPNSPGSGGFPTGRLA

Series [1] covers variants of B1. Briefly: cAMP reporter score (Enrich2 score, wild type = 0); higher = more signal; HEK293T, FACS bins.
The variants in series [2] derive from B1. Briefly: surface expression score (Enrich2 score, wild type = 0); higher = more signal; HEK293T, FACS bins.

On to MGNITADNSSMSCTIDHTIHQTLAPVVYVTVLVVGFPANCLSLYFGYLQIKARNELGVYLCNLTVADLFYICSLPFWLQYVLQHDNWSHGDLSCQVCGILLYENIYISVGFLCCISVDRYLAVAHPFRFHQFRTLKAAVGVSVVIWAKELLTSIYFLMHEEVIEDENQHRVCFEHYPIQAWQRAINYYRFLVGFLFPICLLLASYQGILRAVRRSHGTQKSRKDQIQRLVLSTVVIFLACFLPYHVLLLVRSVWEASCNFAKGVFNAYHFSLLLTSFNCVADPVLYCFVSETTHRDLARLRGACLAFLTCSRTGRAREAYPLGAPEASGKSGAQGEEPELLTKLHPAFQTPNSPGSGGFPTGRLA [D259N], for which the cAMP reporter score in series [1] (pH 5.5) is -0.877; in series [1] (pH 6), -0.531; in series [1] (pH 6, modulator: ogerin) it was -0.499; in series [1] (pH 6.5, modulator: ogerin), 0.043. The surface expression score in series [2] is -0.848.
With MGNITADNSSMSCTIDHTIHQTLAPVVYVTVLVVGFPANCLSLYFGYLQIKARNELGVYLCNLTVADLFYICSLPFWLQYVLQHDNWSHGDLSCQVCGILLYENIYISVGFLCCISVDRYLAVAHPFRFHQFRTLKAAVGVSVVIWAKELLTSIYFLMHEEVIEDENQHRVCFEHYPIQAWQRAINYYRFLVGFLFPICLLLASYQGILRAVRRSHGTQKSRKDQIQRLVLSTVVIFLACFLPYHVLLLVRSVWEASCKFAKGVFNAYHFSLLLTSFNCVADPVLYCFVSETTHRDLARLRGACLAFLTCSRTGRAREAYPLGAPEASGKSGAQGEEPELLTKLHPAFQTPNSPGSGGFPTGRLA [D259K], the cAMP reporter score was 0.409 in series [1] (pH 5.5); -1.29 in series [1] (pH 6); 0.199 in series [1] (pH 6, modulator: ogerin); -0.373 in series [1] (pH 6.5, modulator: ogerin). The surface expression score in series [2] was -1.26.
Consider MGNITADNSSMSCTIDHTIHQTLAPVVYVTVLVVGFPANCLSLYFGYLQIKARNELGVYLCNLTVADLFYICSLPFWLQYVLQHDNWSHGDLSCQVCGILLYENIYISVGFLCCISVDRYLAVAHPFRFHQFRTLKAAVGVSVVIWAKELLTSIYFLMHEEVIEDENQHRVCFEHYPIQAWQRAINYYRFLVGFLFPICLLLASYQGILRAVRRSHGTQKSRKDQIQRLVLSTVVIFLACFLPYHVLLLVRSVWEASCMFAKGVFNAYHFSLLLTSFNCVADPVLYCFVSETTHRDLARLRGACLAFLTCSRTGRAREAYPLGAPEASGKSGAQGEEPELLTKLHPAFQTPNSPGSGGFPTGRLA [D259M], for which the cAMP reporter score is -0.918 in series [1] (pH 5.5); -0.642 in series [1] (pH 6, modulator: ogerin); -2.13 in series [1] (pH 6.5, modulator: ogerin). Further, in series [2], the surface expression score is -0.058.
Regarding MGNITADNSSMSCTIDHTIHQTLAPVVYVTVLVVGFPANCLSLYFGYLQIKARNELGVYLCNLTVADLFYICSLPFWLQYVLQHDNWSHGDLSCQVCGILLYENIYISVGFLCCISVDRYLAVAHPFRFHQFRTLKAAVGVSVVIWAKELLTSIYFLMHEEVIEDENQHRVCFEHYPIQAWQRAINYYRFLVGFLFPICLLLASYQGILRAVRRSHGTQKSRKDQIQRLVLSTVVIFLACFLPYHVLLLVRSVWEASCLFAKGVFNAYHFSLLLTSFNCVADPVLYCFVSETTHRDLARLRGACLAFLTCSRTGRAREAYPLGAPEASGKSGAQGEEPELLTKLHPAFQTPNSPGSGGFPTGRLA [D259L], the cAMP reporter score in series [1] (pH 5.5) was 0.496; in series [1] (pH 6), -0.112; in series [1] (pH 6, modulator: ogerin), 0.806; in series [1] (pH 6.5, modulator: ogerin) it was 0.335. The surface expression score in series [2] is -0.713.
